From PubChem BioAssay AID1159614 (National Center for Advancing Translational Sciences (NCATS), 2016) come the findings set out here.

Hit rate of the full screen: of about 45,000 compounds, about 65 (0.1%) were called active. Calls follow the shape of the dose curve; as a rule, active = well fitted activation curve with a large enough effect; inconclusive = small, poorly fitted or top-dose-only effect; inactive = no such curve, though single readings can be large or run the other way. The list shows a part of the results.

The target of the assay is Galactocerebrosidase (Homo sapiens) (UniProt P54803). In words: A Novel Cell-Based Assay to Identify Small Molecules for B -Galactocerebrosidase. Also: 0% is about no effect; nearly all actives have a fitted effect of over 65% in size. To be noted: 145M-Twi-hGALC-G270D cells (Twitcher mouse brain line with human GALC G270D), HMU-beta-Gal fluorescence, 48 h; series mostly up to 57.5 µM; activation: at the top concentration. An outline of the steps: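 Brain-derived Twitcher mouse 145M-Twi cells stably expressing human GALC-G270D or wild-type GALC, treated live, then residual GALC activity read by fluorescence of HMU-b-Gal substrate (0.1 mM final) in citrate-phosphate buffer pH 5.2 with sodium taurocholate. Signal increase indicates enhancement.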
Sequence of UniProt P54803 (P54803 whole entry, looked up): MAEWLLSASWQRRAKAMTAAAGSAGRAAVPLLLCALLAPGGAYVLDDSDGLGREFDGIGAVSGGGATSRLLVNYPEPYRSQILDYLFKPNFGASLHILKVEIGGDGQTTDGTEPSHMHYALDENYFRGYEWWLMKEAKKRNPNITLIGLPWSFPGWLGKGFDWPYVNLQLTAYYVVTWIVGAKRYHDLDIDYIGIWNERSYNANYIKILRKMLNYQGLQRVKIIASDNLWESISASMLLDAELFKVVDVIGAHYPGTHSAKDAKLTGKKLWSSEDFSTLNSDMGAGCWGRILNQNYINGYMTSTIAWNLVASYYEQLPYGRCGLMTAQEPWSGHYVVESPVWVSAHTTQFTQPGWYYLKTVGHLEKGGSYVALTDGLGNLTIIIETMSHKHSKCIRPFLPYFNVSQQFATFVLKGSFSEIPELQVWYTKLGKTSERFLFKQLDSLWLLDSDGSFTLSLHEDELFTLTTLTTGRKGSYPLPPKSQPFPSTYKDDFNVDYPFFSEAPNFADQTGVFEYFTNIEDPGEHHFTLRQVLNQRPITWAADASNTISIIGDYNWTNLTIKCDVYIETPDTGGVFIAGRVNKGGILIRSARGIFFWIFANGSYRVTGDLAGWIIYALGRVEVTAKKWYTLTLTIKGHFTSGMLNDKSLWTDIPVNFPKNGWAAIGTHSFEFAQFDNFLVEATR
Turning to `Cc1cc2ccccc2n2c(SCC(=O)Nc3cccc(C(F)(F)F)c3)nnc12`, the “activation” value is inactive: 3.33%. For `CC(=O)c1cccc(NC(=O)c2c(C)nn(-c3ccc(F)cc3)c2-n2cccc2)c1` the value was inactive: 1.47%; for `O=C(CSc1ncc2c(n1)-c1cc(Cl)ccc1N(Cc1ccccc1F)S2(=O)=O)Nc1cccc(C(F)(F)F)c1`, inactive: -7.75%. For `CCCCCN1C(C(=O)c2ccccc2)=C(NC(C)=O)c2ccccc2S1(=O)=O` the value was inactive: -10.9%; for `COC(=O)c1cc(NC(=O)c2ccc3c(c2)N(Cc2cccc(Cl)c2)C(=O)c2ccccc2S3=O)cc(C(=O)OC)c1` (stereo not given), inactive: -11.3%. For `CCOC(=O)c1ccc(NC(=O)CSc2nccn2Cc2ccc(OC)cc2)cc1` the value was inactive: -15.6%; for `Cc1cc(C)cc(C(=O)Nc2nnc3n2CCS3)c1`, inactive: -11.8%; for `COc1ccc(OCc2nc3c4c(-c5ccc(OC)cc5)c(-c5ccc(OC)cc5)oc4ncn3n2)cc1`, inactive: -17%. In the case of `CCOc1ccccc1NC(=O)c1cnc(N2CCOCC2)c2ccccc12`, the “activation” value is inactive: -13%. For the molecule `CNc1oc(-c2ccc(COc3ccc(C)cc3)o2)nc1C#N`, the “activation” value is inactive: -5.27%.

For `CCOc1ccccc1C(=O)Nc1cc(-c2ccc(C)cc2)no1`, the “activation” value was inactive: -5.49%.

Regarding `Cc1cccc(S(=O)Cc2ccc(C(=O)NC3CCCCCC3)o2)c1` (stereo not given), the “activation” value was inactive: -9.25%.

`O=S(=O)(c1ccc(-c2cnc(C3CC3)o2)cc1)N1CCN(c2cccc(Cl)c2)CC1`: the “activation” value is inactive: 0.804%. For `Cc1c(-c2ccccc2)n(-c2ccccc2O)c2nc3c(c(=O)n(C)c(=O)n3C)n12` the value was inactive: -2.11%; for `Cc1ccc(C(=O)Nc2ccc(C(=O)OCc3cc(=O)n4c5c(sc4n3)CCCC5)cc2)cc1`, inactive: -16.5%. For `COc1ccccc1Nc1ncc(C(=O)Nc2ccc(OC)c(OC)c2)c2ccccc12` the value was inactive: -10.7%; for `O=C(c1ccc2c(c1)N(Cc1ccccc1)C(=O)c1ccccc1S2=O)N1CCC(Cc2ccccc2)CC1` (stereo not given), inactive: -8.66%.

For `Cc1ccc2c(c1)c(=O)c(S(=O)(=O)c1ccc(C)c(C)c1)cn2CC(=O)Nc1ccccc1`, the “activation” value is inactive: -2.17%.

On to `CC[N+](CC)(CCNC(=O)C(=O)NCC[N+](CC)(CC)Cc1ccccc1Cl)Cc1ccccc1Cl`, for which the “activation” value was inactive: -13.4%. For `CCCOc1ccc(C2=NC(c3ccc(F)cc3)=Nc3ccc(OC)cc3N2)cc1` the value was inactive: -33.6%.

For `CCc1cccc(C)c1NC(=O)C1=C(C)C(=O)OC12CCC(C)CC2` (stereo not given), the “activation” value is inactive: -11.5%. As for `COc1ccc2nc(N(Cc3cccnc3)C(=O)COc3ccccc3)sc2c1`, the figure is inactive: -18.4%; as for `COc1ccccc1CNC(=O)c1ccc2c(c1)CCN2S(=O)(=O)c1ccc(Cl)cc1`, inactive: -8.11%. For `COC(=O)c1cc(S(=O)(=O)N2CCN(c3ccc(F)cc3)CC2)cn1C` the value was inactive: -14.7%; for `COC(=O)c1ccc(Cn2nnc3c(=O)[nH]c(C4CCCN(S(=O)(=O)c5ccccc5)C4)nc32)cc1` (stereo not given), inactive: 2.56%; for `Cn1cc(C(=O)NCCc2ccc(Cl)cc2)c(=O)c2cc(S(=O)(=O)N3CCCCC3)ccc21`, inactive: -5.19%. For `COc1ccc(N2CCN(C(=O)Cn3nc(Cc4cccnc4)c4ccccc4c3=O)CC2)cc1` the value was inactive: -16.8%; for `COc1ccccc1CNC(=O)c1cnc2sc(N3CCOCC3)nn2c1=O`, inactive: -4.01%. Consider `Cc1ccc(Nc2ncnc3c2nc2n3CCCC2)c(Br)c1`, for which the “activation” value was inactive: -22.5%. Turning to `COc1ccc(NC(=O)NCC2CCN(Cc3ccccc3F)CC2)c(OC)c1`, the “activation” value was inactive: -28.9%. As for `Cc1ccc(F)cc1NC(=O)CCSc1nc(-c2ccco2)cc(C(F)(F)F)n1`, the figure is inactive: 2.71%. As for `CC1CCCN(S(=O)(=O)c2cc(C(=O)NCc3ccccc3Cl)n(C)c2)C1` (stereo not given), the figure is inactive: -1.26%.

As to `C=Cc1ccc(Cn2c(C(=O)O)c(CNCc3ccccc3)c3ccc(OC)cc32)cc1`, the “activation” value was inactive: -22.1%.

Take `Cc1ccc(NC(=O)C(=O)NCC(c2cccnc2)N2CCc3ccccc3C2)cc1` (stereo not given): the “activation” value was inactive: -7.53%. `CCOc1cc2[nH]c(=O)n(CCCC(=O)NCc3ccc(OC)cc3)c(=O)c2cc1OCC`: the “activation” value was inactive: -13.1%. As for `COc1ccc(-c2cn3c(n2)sc2cc(C(=O)Nc4ccc(F)cc4Cl)ccc23)cc1`, the figure is inactive: -0.801%; as for `COc1ccc(-n2ccn(CC(=O)Nc3ccc(C)c(C)c3)c(=O)c2=O)cc1OC`, inactive: -14.7%; as for `CC(C)CCNC(=O)c1nn(C)c2c1CSc1ccccc1-2`, inactive: -2.98%. As for `COC(=O)c1c(-c2cccs2)csc1NC(=O)c1cc(OC)c(OC)c(OC)c1`, the figure is inactive: -25.5%.

Turning to `COc1cccc(C2c3c(-c4ccccc4O)n[nH]c3C(=O)N2Cc2cccnc2)c1` (stereo not given), the “activation” value is inactive: -1.25%. For `O=C(NC1CCCCCC1)c1ccc(CS(=O)c2ccc(Br)cc2)o1` (stereo not given) the value was inactive: -14%; for `CCN(C(=O)c1cc2cc(Br)cc(OC)c2oc1=O)c1ccccc1`, inactive: -11.6%; for `CC1=CC(=O)c2ccccc2C1=O`, inactive: -10.7%. As for `COc1cc(Br)ccc1C1C(C(=O)Nc2ccc(C)cc2C)=C(C)Nc2nnnn21` (stereo not given), the figure is inactive: -20.4%; as for `COc1ccc(CCNc2nc3ccccc3c3nc(-c4cccc(C)c4)nn23)cc1OC`, inactive: -10.6%. For `COc1ccc(S(=O)(=O)NCCc2sc(-c3cccc(C)c3)nc2C)cc1` the value was inactive: -41.9%; for `Cc1ccc(CCNC(=O)c2cccc(Nc3nc4ccccc4nc3-n3nc(C)cc3C)c2)cc1`, inactive: -7.88%; for `CCc1ccccc1NC(=O)Cn1c(=O)n(-c2ccc(C)c(C)c2)c(=O)c2oc3ccccc3c21`, inactive: -25.4%.

In the case of `Cc1ccc(NC(=O)CSCc2cnn(-c3ccccc3)c2-n2cccc2)c(Cl)c1`, the “activation” value was inactive: -2.81%.

With `COc1cc(OC)c(NC(=O)NCc2cccn2Cc2ccccc2)cc1Cl`, the “activation” value was inactive: -15.7%. For `CC(C)CCNC(=O)c1ccc(Cn2c(SCC(N)=O)nc3ccccc3c2=O)cc1` the value was inactive: -22.6%; for `CCOc1cc(C(=O)OCc2cc(=O)n3nc(C4CC4)sc3n2)cc(OCC)c1OCC`, inactive: -11.5%; for `CCc1ccc(-n2nc(C)c3c(C(=O)N4CCN(c5cccc(Cl)c5)CC4)cc(C)nc32)cc1`, inactive: -12.6%. For `CCOC(=O)c1ccc(NC(=O)CCc2c(C)nc3c(c(C)nn3C(C)(C)C)c2C)cc1` the value was inactive: -11.5%; for `Cc1nn(CC(=O)N2CCN(c3cccc(Cl)c3)CC2)c(=O)c2c1sc1ccccc12`, inactive: -14.7%. Regarding `COC(=O)c1ccc(CSc2nc3c([nH]c4ccccc43)c(=O)n2-c2cc(C)cc(C)c2)o1`, the “activation” value is inactive: -8.17%. As for `CCS(=O)(=O)c1cccc(C(=O)N2CCN(c3nc4c(C)ccc(Cl)c4s3)CC2)c1`, the figure is inactive: -21.9%. For `CCCCCn1c(CNC(=O)c2ccc(F)cc2)nc2ccccc21` the value was inactive: -15.9%; for `CN(C(=O)Cn1ncc2c1-c1ccccc1OC2)c1ccc(Br)cc1`, inactive: -6.08%; for `N=C(N)N1CCc2ccccc2C1`, inactive: -4.82% [at 5.77 µM]. As for `Cc1ccc(S(=O)(=O)NCCc2nnc3ccc(SCC(=O)Nc4ccc(OC(F)(F)F)cc4)nn23)cc1`, the figure is inactive: -12.9%; as for `O=C1COc2cc(S(=O)(=O)CCC(=O)N3CCN(c4ccccc4)CC3)c(Cl)cc2N1`, inactive: -12%; as for `CCOc1ccc(NC(=O)Cn2c(=O)c(CNc3ccccc3)cc3cc4c(cc32)OCCO4)cc1`, inactive: 12.1%.

For the molecule `CCCc1ccc(-c2ccc(C(=O)Oc3ccc(Br)cc3)cc2)nc1`, the “activation” value was inactive: -6.04%. As for `COc1ccc(Cl)cc1C(=O)Nc1c2c(nn1-c1ccc(Cl)cc1)CS(=O)(=O)C2`, the figure is inactive: -27.2%; as for `Cc1cc(C)cc(-n2ccnc(NCc3ccc(F)cc3)c2=O)c1`, inactive: -9.86%. Consider `COc1ccccc1OCC(=O)Nc1c(C(=O)c2ccc(C)cc2)oc2ccccc12`, for which the “activation” value is inactive: -3.68%.

For `CCCCCn1c(-c2cccc(C)c2)nc2ccccc21`, the “activation” value is inactive: -15.6%. For `O=C(Nc1ccc2c(c1)OCO2)c1cc(-c2ccc(Cl)cc2)on1` the value was inactive: -12.2%; for `CN(C)C1(CNC(=O)COc2ccc(C(C)(C)C)cc2)CCCCC1`, inactive: -9.68%. With `CCOC(=O)c1c(C)[nH]c(C)c1S(=O)(=O)N1CCC(C(=O)NCc2ccc(N(C)C)cc2)CC1`, the “activation” value is inactive: -4.95%.

`COc1ccc(OC)c(CCNC(=O)C(C)n2c(C)c3cnn(-c4ccccc4)c(=O)c3c2C)c1` (stereo not given): the “activation” value was inactive: -6.86%. As to `COc1ccccc1CNS(=O)(=O)c1ccc(N2CCCCS2(=O)=O)cc1`, the “activation” value is inactive: -18.4%. As for `CCOc1ccc(NC(=O)Cn2cc(C(=O)c3ccccc3)c(=O)c3cc4c(cc32)OCO4)cc1`, the figure is inactive: -4.45%.

In the case of `Cc1ccc(Cn2c(=O)n(-c3ccc(C)c(C)c3)c(=O)c3c(C)c(C)sc32)cc1`, the “activation” value is inactive: -16.9%. In the case of `CCOc1ccc(CNC(=O)C2=Cc3cc(Br)ccc3OC2)cc1OC`, the “activation” value is inactive: -8.79%. For `COc1ccccc1NC(=O)c1oc2ccccc2c1NC(=O)COc1ccccc1OC` the value was inactive: -10.8%. As for `COc1ccc(Cl)cc1NC(=O)CSc1nc(=O)[nH]c2c1CCCC2`, the “activation” value is inactive: -8.48%. For `CCOc1ccc(OCC)c(NC(=O)c2csc3c2CCCC3)c1` the value was inactive: -12.8%; for `CN(C)CCOc1ccccc1Cc1ccccc1`, inactive: -15.2%; for `COc1cc(Cl)c(NC(=O)CN(C)S(=O)(=O)c2ccc3c(c2)CCCC(=O)N3)c(OC)c1`, inactive: -5.13%. For `COc1ccc(NC(=O)c2cc(C)nc3c2c(C)nn3-c2cccc(Cl)c2C)c(OC)c1` the value was inactive: -0.428%; for `CC(=O)N1c2c(cc(Br)cc2S(=O)(=O)NCc2ccccc2Cl)CC1C` (stereo not given), inactive: -15.8%.

Turning to `Cc1ccc2oc(-c3ccc(NC(=O)c4cccc(F)c4)c(C)c3)nc2c1`, the “activation” value was inactive: 14.6%.

Take `COc1cc(NC(=O)N2CCC(CN3CCc4ccccc4C3)CC2)cc(OC)c1`: the “activation” value was inactive: -0.612%. As for `Cc1ccc(-c2cn3c(n2)sc2cc(C(=O)NCc4cccs4)ccc23)c(C)c1`, the figure is inactive: -8.21%. As for `Cc1ccc(N(Cc2cc3ccccc3[nH]c2=O)C(=O)c2cccc(Cl)c2)cc1`, the figure is inactive: -10.1%; as for `CCc1ccc(-n2nc(CO)c(C(=O)NCC(c3ccccc3)c3ccccc3)n2)cc1`, inactive: -7.92%.

As for `CCN(CC)CCCNC(=O)CSc1nc2nc(C)c(Cc3c(F)cccc3Cl)c(C)n2n1`, the “activation” value was inactive: -15.6%. Take `CCCc1nc2c(C)cc(-c3nc4ccccc4n3C)cc2n1Cc1ccc(-c2ccccc2C(=O)O)cc1`: the “activation” value was inactive: -7.72%. For `Cc1ccc(C)c(NC(=O)Cn2c(=O)n(Cc3ccc4c(c3)OCO4)c(=O)c3oc4ccccc4c32)c1` the value was inactive: -8.37%; for `CC1=C(C(N)=O)C(c2cccc(C)c2)n2nc(-c3cccc(C)c3)nc2N1` (stereo not given), inactive: -9.52%; for `COc1ccc(-c2noc(CSc3nc(C)cc(=O)[nH]3)n2)cc1OC`, inactive: -9.34%. As for `Cc1ccc(CSc2nnc(-n3c(=O)c(C#N)cc4c(=O)n5cc(C)ccc5nc43)s2)cc1`, the figure is inactive: -8.19%; as for `COc1ccc(OCC2c3cc(OC)c(OC)cc3CCN2C(=O)COc2ccc(Cl)cc2Cl)cc1` (stereo not given), inactive: -21.5%.
